Results on 50 compounds are retold here after article PMC6919601, “Identification of Plasmodium dipeptidyl aminopeptidase allosteric inhibitors by high throughput screening” (PLoS ONE, 2019).

Structures are written as SMILES. Among all 110,000 compounds or so, about 230 (0.21%) showed an effect of 50% or more. Some of the results follow.
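Further: 30 min substrate incubation versus DMSO and 10 µM JCP410 controls.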

Chain of DPAP1 (Q8IIJ9 whole entry, looked up): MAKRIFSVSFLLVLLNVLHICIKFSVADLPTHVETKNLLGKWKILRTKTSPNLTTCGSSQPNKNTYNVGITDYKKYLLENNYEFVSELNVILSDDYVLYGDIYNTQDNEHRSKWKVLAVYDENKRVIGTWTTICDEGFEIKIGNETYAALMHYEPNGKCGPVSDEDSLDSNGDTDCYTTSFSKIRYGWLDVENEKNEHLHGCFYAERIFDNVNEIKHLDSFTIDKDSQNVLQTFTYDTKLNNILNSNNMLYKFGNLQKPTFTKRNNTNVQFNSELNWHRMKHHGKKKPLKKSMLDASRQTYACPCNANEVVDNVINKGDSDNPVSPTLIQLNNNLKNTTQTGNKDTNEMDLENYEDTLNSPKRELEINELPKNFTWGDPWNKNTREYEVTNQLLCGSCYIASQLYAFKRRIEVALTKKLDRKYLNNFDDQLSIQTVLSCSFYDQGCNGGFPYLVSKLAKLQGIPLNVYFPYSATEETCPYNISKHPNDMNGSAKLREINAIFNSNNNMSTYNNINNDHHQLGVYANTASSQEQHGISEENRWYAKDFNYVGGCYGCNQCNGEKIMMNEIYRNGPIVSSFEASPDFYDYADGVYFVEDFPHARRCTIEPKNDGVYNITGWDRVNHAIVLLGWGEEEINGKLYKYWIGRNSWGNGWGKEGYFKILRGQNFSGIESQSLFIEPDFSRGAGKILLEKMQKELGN

The experiment concerns the target DPAP1 (Plasmodium falciparum, UniProt Q8IIJ9). As to the kind of experiment: primary screen, percent inhibition; read by cleavage of a fluorogenic dipeptide substrate; higher = more effect of the substance. Also on record: species or system P. falciparum D10 trophozoite lysates; single well.
Regarding `COc1ccc(Cl)cc1NC(=O)CN(c1cccc(C)c1)S(C)(=O)=O`, the “% Inhibition @ 10 uM” value is listed as -0.992%.
Take `CCOC(=O)c1cc(-c2ccc(OC)c(S(=O)(=O)N3CCN(C4CCCCC4)CC3)c2)on1`: the “% Inhibition @ 10 uM” value was 3.95%.
With `O=C1N/C(=C/c2ccc(O)cc2)C(=O)N1Cc1ccccc1F` the figure was -1.28%; with `CC/N=c1\c(NC(=O)C2CCC(C)CC2)c(O)oc2ccccc12` (centres unmarked), 5.43%; with `O=C(O)c1ccc(CS(=O)Cc2ccc(Cl)cc2)o1` (centres unmarked), -0.256%.
Take `Cc1nc(N2CCOCC2)c2c3c(sc2n1)CCC3`: the “% Inhibition @ 10 uM” value worked out at 12.3%.
Under `COc1cc2c(cc1OC)CN(Cc1ccc(F)c(Br)c1)CC2` stands -3.77%; under `C/C(=N\[C@@H](CS(=O)(=O)Cc1ccccc1OC(F)F)C(=O)NCC#N)NS(C)(=O)=O`, -6.56%.
In the case of `Cc1ccc(C)c(NS(=O)(=O)c2cc(Cl)ccc2Cl)c1`, the “% Inhibition @ 10 uM” value came out at 2.22%.
Under `CNC(=O)N1c2ccc(C)cc2C2CN(C)CCC21` (centres unmarked) stands -0.969%; under `CN1CCN(C(=O)c2ccc(CN(c3ccccc3)S(=O)(=O)c3ccccc3)cc2)CC1`, -1.51%.
For the compound `Cc1ccc(C2NC(=O)c3c(sc4c3CCN(C)C4)N2)cc1` (centres unmarked), the “% Inhibition @ 10 uM” value is on record as -1.28%.
With `CCc1ccc(NC(=O)CN(C2CCCCC2)S(C)(=O)=O)cc1` the figure was -0.545%; with `Cn1c(=O)c(-c2ccc(Cl)cc2)c(O)c2ccccc21`, 0.446%.
With `COc1cc(S(=O)(=O)Nc2ccc(C)cc2)ccc1/N=C/c1c(C)nn(-c2ccccc2)c1O`, the “% Inhibition @ 10 uM” value was found to be 1.19%.
Turning to `CCC(C)N(CCNC(=O)C1CCN(c2ncnc3c2nc2n3CCCCC2)CC1)Cc1ccco1` (centres unmarked), the “% Inhibition @ 10 uM” value stood at 5.49%.
With `CC(CCc1ccccc1)NC(=O)Cn1cnc2onc(-c3ccc(F)cc3)c2c1=O` (centres unmarked) the figure was 4.4%; with `Cn1nc(C(=O)Nc2ccccn2)c2c1-c1ccccc1S(=O)(=O)C2`, 1.23%.
With `CCc1ccc(/C=C(/C#N)c2nc(-c3ccc(Cl)c(Cl)c3)cs2)cc1` the figure was 0.827%.
With `Cc1nc2ncnn2c(O)c1NC(=O)c1cccc(F)c1` the figure was 3.99%.
In the case of `O=C(c1ccc(-c2ccccc2)cc1)N1CCCC1`, the “% Inhibition @ 10 uM” value is -3.82%.
Under `CCCOC(=O)c1ccc(NC(=O)c2c(OC)cccc2OC)cc1` stands 3.65%; under `Cn1nc(C(=O)N2CCN(C(=O)c3ccco3)CC2)c2c1-c1ccccc1S(=O)(=O)C2`, -6.34%.
With `CC(NC(=O)c1cc2sccc2n1C)c1ccccc1` (centres unmarked) the figure was -6.68%; with `N#Cc1c(N/C=C2/C(=O)NC(=O)N(c3ccc(Cl)cc3)C2=O)sc2c1CCC2`, 0.76%; with `COc1ccc(S(=O)(=O)N2CCC(C(N)=O)(N3CCCCC3)CC2)cc1`, -2.5%.
With `COc1cccc(N(CC(=O)NCc2ccco2)S(=O)(=O)c2ccccc2)c1` the figure was -5.19%.
In the case of `CCCCNC(=O)Cn1c(=O)cc(C(F)(F)F)c2c(C)nn(C)c21`, the “% Inhibition @ 10 uM” value is reported as -2.29%.
With `COc1cccc(Cn2c(-c3cncs3)nc3ccccc32)c1` the figure was 4.93%; with `Cc1ccc(CN2CCN(Cc3c[nH]c4ccccc34)CC2)cc1`, -7.05%.
As for `Cc1nc2ccn(Cc3ccccc3)c(=O)c2cc1C(=O)NCCCc1ccco1`, the “% Inhibition @ 10 uM” value was 0.234%.
As to `O=C(CC12CC3CC(CC(C3)C1)C2)OCC(O)CN1CCC(CO)CC1` (centres unmarked), the “% Inhibition @ 10 uM” value turned out to be 2.65%.
Under `Cc1cc(C)nc(NC(=N)N2CCN(C)CC2)n1` stands 2.03%; under `O=C(Cn1nc(C(F)(F)F)cc1C1CC1)Nc1cccc(Br)c1`, 0.389%; under `COC(=O)c1ccc(-c2ccc(/C=C3\C(=O)N(CCCO)C(=O)C(C#N)=C3C)o2)cc1`, -1.26%.
With `O=C(Nc1ccc(NC(=O)c2cccs2)cc1)c1ccc2c(c1)OCCO2` the figure was -6.36%; with `NC1=C(c2nc3ccccc3s2)C(=O)CN1CC1CCCO1` (centres unmarked), -2.99%; with `Nc1ncc(Br)cc1S(=O)(=O)N1CCN(Cc2ccccc2)CC1`, -1.06%.
With `CC(=O)Nc1ccc(NC(=O)CC(C)C)cc1` the figure was 0.324%.
With `CCOC(=O)N1CCC(/N=c2/c(N3CC4CC(C3)c3cccc(=O)n3C4)c(O)c2=O)CC1` (centres unmarked), the “% Inhibition @ 10 uM” value was 3.34%.
Consider `COc1ccccc1CNc1nc2ccccc2c2nc(-c3ccccc3)nn12`, for which the “% Inhibition @ 10 uM” value was -0.692%.
Under `O=C(N/C(=C/c1ccc(Cl)cc1)c1nc2ccccc2[nH]1)c1ccco1` stands 3.61%; under `Cc1ccc(NC(=O)CSc2nc3ccccc3cc2C#N)cc1`, -1.38%.
For the compound `CC1CCCC(C)N1C(=O)c1cc(-c2ccc(Cl)c(Cl)c2)on1` (centres unmarked), the “% Inhibition @ 10 uM” value is 0.0221%.
Under `CCc1ccc(C2CC(c3cccc(OC)c3)n3nnnc3N2)cc1` (centres unmarked) stands 1.73%; under `O=C(O)C1CCCN1S(=O)(=O)c1ccccc1` (centres unmarked), -0.712%.
With `O=C(NCC(c1ccccc1)C1CCCCC1)c1cccs1` (centres unmarked) the figure was -5.72%.
Turning to `Cc1ccc(-c2coc3cc4oc(=O)ccc4cc23)cc1`, the “% Inhibition @ 10 uM” value was -1.15%.
Under `CC(C)NC(=O)c1cnn(-c2ccc(F)cc2)c1-n1cccc1` stands 0.942%; under `Cc1nc2c(c(-c3ccccc3)c1C(=O)O)C(=O)CC(C)(C)C2`, 2.16%.
